Results on 29 molecules are retold here after patent US8481501B2 (priority 2004, dated 2013).

Assay [1] addresses T1, mu opioid receptor (Homo sapiens, UniProt P35372). Description: biochemical. As to conditions: for Emax: read-out: mu % stimulation. More on the design: expressed in transfected cells; host or cells: transfected cells.
Assay [2] concerns the target T1, mu opioid receptor. The arrangement: expressed in transfected cells; host or cells: transfected cells. The conditions noted are these: cited from earlier work; for μ Emax: Table 6, data from reference 6; for efficacy (Emax) at the μ receptor: value, reference compounds.
The target of assay [3] is T1, mu opioid receptor. The arrangement: expressed in transfected cells; host or cells: transfected cells. The conditions noted are these: Table 5, data taken from MacDougall et al., cited from earlier work; for Ki: read-out: Ki μ.
In assay [4] the target is T1, mu opioid receptor. Put plainly: biochemical.
[5] abbreviates: Table 2, maximal stimulation relative to control.

Like-named read-outs stand apart in the source and are kept apart here.

The EC50 is the midpoint of the concentration-response curve. For orientation: Ki means a dissociation constant, usually derived from enzyme kinetics or from competition with a known ligand.

T1 sequence (P35372 whole entry): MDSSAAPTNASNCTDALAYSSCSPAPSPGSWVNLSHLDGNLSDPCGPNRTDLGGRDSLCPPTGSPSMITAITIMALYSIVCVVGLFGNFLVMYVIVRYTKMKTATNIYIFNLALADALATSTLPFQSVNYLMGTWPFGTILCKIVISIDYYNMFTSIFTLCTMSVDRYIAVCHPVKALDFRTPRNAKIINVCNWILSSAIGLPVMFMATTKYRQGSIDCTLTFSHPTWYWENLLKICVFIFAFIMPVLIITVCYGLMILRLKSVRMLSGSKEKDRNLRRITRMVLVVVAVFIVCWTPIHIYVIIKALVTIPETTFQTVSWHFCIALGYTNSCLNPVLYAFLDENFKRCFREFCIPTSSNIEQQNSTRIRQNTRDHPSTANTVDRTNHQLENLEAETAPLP

Regarding `COC(=O)[C@H]1OC(CC(=O)NC2C=CC3C4Cc5ccc(O)c6c5C3(CCN4C)C2O6)[C@H](OC(C)=O)[C@@H](OC(C)=O)[C@@H]1OC(C)=O` (stereo in doubt) [compound 10, 6α-(Methyl 2′,3′,4′-tri-O-acetyl-β-D-glucopyranosyluronate)acetamido-morphine], at mu opioid receptor [1] (setting [5]), the Emax was 104 ± 1.2%. In addition, the EC50 at mu opioid receptor [1] (Table 2, read-out: mu EC50) was determined as 9.4 ± 3.2 nM.
On to `CC(=O)OC[C@H]1OC(SC2C=CC3C4Cc5ccc(OC(C)=O)c6c5C3(CCN4C)C2O6)[C@H](OC(C)=O)[C@@H](OC(C)=O)[C@@H]1OC(C)=O` (stereo partly drawn) [3c, 3-O-Acetyl-6β-S-(2′,3′,4′,5′-tetra-O-acetyl-β-D-glucopyranosyl)-6β-thiomorphine], for which the Emax on mu opioid receptor [1] (setting [5]) is 44.1 ± 4.9%. The EC50 on mu opioid receptor [1] (Table 2, read-out: mu EC50) was determined as 4790 ± 1620 nM.
For the molecule `CC(=O)OC[C@H]1OC(SC2C=CC3C4Cc5ccc(O)c6c5C3(CCN4C)C2O6)[C@H](OC(C)=O)[C@@H](OC(C)=O)[C@@H]1OC(C)=O` (stereo partly drawn) [3d, 6-βS-(2′,3′,4′,5′-Tetra-O-acetyl-β-D-glucopyranosyl)-6β-thiomorphine], at mu opioid receptor [1] (setting [5]), the mu % stimulation is reported as 76.0 ± 3.0% and the Emax amounted to 76%. In addition, on mu opioid receptor [1] (Table 2, read-out: mu EC50), the EC50 is 33.7 ± 11.3 nM.
As to `COC(=O)[C@H]1OC(SC2C=CC3C4Cc5ccc(OC)c6c5C3(CCN4C)C2O6)[C@H](OC(C)=O)[C@@H](OC(C)=O)[C@@H]1OC(C)=O` (stereo partly drawn) [3e, 6β-S-(Methyl-2′,3′,4′-tri-O-acetyl-β-D-glucopyranosyluronate)codeine], at mu opioid receptor [1] (setting [5]), the Emax was 19.3 ± 0.3%. Also, the EC50 on mu opioid receptor [1] (Table 2, read-out: mu EC50) turned out to be 732 ± 47.1 nM.
For the molecule `COc1ccc2c3c1OC1C(SC4O[C@H](COC(C)=O)[C@@H](OC(C)=O)[C@H](OC(C)=O)[C@H]4OC(C)=O)C=CC4C(C2)N(C)CCC341` (stereo partly drawn) [3f, 6-S-(2′,3′,4′,5′-Tetra-O-acetyl-β-D-glucopyranosyl)6β-thiocodeine], the Emax on mu opioid receptor [1] (setting [5]) turned out to be 41.9 ± 2.1%. For the same molecule, at mu opioid receptor [1] (Table 2, read-out: mu EC50), the EC50 stood at 994 ± 13.3 nM.
With `CN1CCC23c4c5ccc(O)c4OC2C(SC2O[C@H](C(=O)O)[C@@H](O)[C@H](O)[C@H]2O)C=CC3C1C5` (stereo partly drawn) [4a, Morphine-6β-S-D-glucuronide], on mu opioid receptor [2], the “μ Emax” value is 46.6 ± 10.1 and the “efficacy (Emax) at the μ receptor” value was 46.6%. Besides, at mu opioid receptor [3], the “Receptor selectivity δ/μ” value is 3.6, the “Receptor selectivity κ/μ” value is reported as 33 and the Ki is 8.7 ± 0.9 nM. For the same molecule, on mu opioid receptor [1] (setting [5]), the mu % stimulation is 46.6 ± 10.1% and the Emax is 46.6%. In addition, on mu opioid receptor [1] (Table 2, read-out: mu EC50), the EC50 was 90.6 ± 22.9 nM.
On to `CN1CCC23c4c5ccc(O)c4OC2C(SC2O[C@H](CO)[C@@H](O)[C@H](O)[C@H]2O)C=CC3C1C5` (stereo partly drawn) [4b, 6β-Thiomorphine-6β-S-D-glucopyranoside], for which the “μ Emax” value at mu opioid receptor [2] was 64.5 ± 0.5. The Ki on mu opioid receptor [3] was 5.4 ± 0.8 nM. In addition, at mu opioid receptor [1] (setting [5]), the mu % stimulation is 64.5 ± 0.5% and the Emax was found to be 64.5%. Further, the EC50 at mu opioid receptor [1] (Table 2, read-out: mu EC50) was determined as 91.5 ± 23.4 nM.
`COc1ccc2c3c1OC1C(SC4O[C@H](C(=O)O)[C@@H](O)[C@H](O)[C@H]4O)C=CC4C(C2)N(C)CCC341` (stereo partly drawn) [4c, Codeine 6β-S-glucuronide]: the “mu EC50” value at mu opioid receptor [1] (Table 2) was “flat”. The mu % stimulation result on mu opioid receptor [1] (setting [5]) is recorded as “flat”.
In the case of `COc1ccc2c3c1OC1C(SC4O[C@H](CO)[C@@H](O)[C@H](O)[C@H]4O)C=CC4C(C2)N(C)CCC341` (stereo partly drawn) [4d, 6β-Thiocodeine-6β-S-D-glucose], on mu opioid receptor [1] (setting [5]), the Emax worked out at 42 ± 6%. Further, at mu opioid receptor [1] (Table 2, read-out: mu EC50), the EC50 was found to be 1060 ± 22 nM.
With `O=C(CC1OC(CO)C(O)C(O)C1O)NC1CCC2(O)C3Cc4ccc(O)c5c4C2(CCN3CC2CC2)C1O5` (stereo not drawn) [6a, 14-Hydroxy-17-(cyclopropylmethyl)nordesmorphine-6-acetamidoglucose], at mu opioid receptor [1] (Table 8), the Emax was determined as 15.8 ± 1.6%. At mu opioid receptor [1] (Table 8, read-out: mu EC50), the EC50 was found to be 42.3 ± 5.4 nM. In addition, the “agonist/antagonist character at the mu receptor” value (“agonist/antagonist character” for short) at mu opioid receptor [1] (based on [35S]GTPγS binding) is “strong antagonist”.
In turn, `CN(C)c1cccc(C(=O)NC2CCC3(O)C4Cc5ccc(O)c6c5C3(CCN4CC3CC3)C2O6)c1` (stereo not drawn) [6c, 6-(3′-dimethylamino)benzamido-14-hydroxy-17-(cyclopropylmethyl)nordesmorphine] had a Kb on mu opioid receptor [4] of 0.457 nM. Besides, on mu opioid receptor [1], it took 4.6 ± 0.9 nM to reach a half-maximal effect (EC50) and the Emax was 19.3 ± 0.1%.
Regarding `COc1cccc(C(=O)NC2CCC3(O)C4Cc5ccc(O)c6c5C3(CCN4CC3CC3)C2O6)c1` (stereo not drawn) [6d, 6-(3′-Methoxy)benzamido-14-hydroxy-17-(cyclopropylmethyl)nordesmorphine], at mu opioid receptor [1] (Table 8), the Emax is 20.6 ± 1.5%. Further, the EC50 at mu opioid receptor [1] (Table 8, read-out: mu EC50) amounted to 1.2 ± 0.6 nM.
As to `O=C(Cc1cccs1)NC1CCC2(O)C3Cc4ccc(O)c5c4C2(CCN3CC2CC2)C1O5` (stereo not drawn) [6e, 6-(Thiophen-2′-yl)acetamidomido-14-hydroxy-17-(cyclopropylmethyl) nordesmorphine], on mu opioid receptor [1], the response was half-maximal at 5.2 ± 1.6 nM (EC50) and the Emax worked out at 16.1 ± 1.9%.
As for `COC(=O)[C@H]1OC(CC(=O)NC2C=CC3C4Cc5ccc(OC)c6c5C3(CCN4C)C2O6)[C@H](OC(C)=O)[C@@H](OC(C)=O)[C@@H]1OC(C)=O` (stereo partly drawn) [9b], the Emax on mu opioid receptor [1] (setting [5]) stood at 96.8 ± 8.22%. For the same molecule, the EC50 at mu opioid receptor [1] (Table 2, read-out: mu EC50) was determined as 83.9 ± 4.3 nM.
The corresponding values for `CN1CCC23c4c5ccc(O)c4OC2C(NC(=O)CC2O[C@H](C(=O)O)[C@@H](O)[C@H](O)[C@H]2O)C=CC3C1C5` (stereo partly drawn) [11a, 6β-(α-Glucuronosyl)acetamidomorphine] are 44.5 ± 7.1% and 114 ± 5.55 nM.
With `COc1ccc2c3c1OC1C(NC(=O)CC4O[C@H](C(=O)O)[C@@H](O)[C@H](O)[C@H]4O)C=CC4C(C2)N(C)CCC341` (stereo partly drawn) [11b], the Emax at mu opioid receptor [1] (setting [5]) was 27.1 ± 3.4%. For the same molecule, on mu opioid receptor [1] (Table 2, read-out: mu EC50), the EC50 was found to be 672.3 ± 6.4 nM.
Take `COc1cccc(CC(=O)NC2C=CC3C4Cc5ccc(O)c6c5C3(CCN4C)C2O6)c1` (stereo not drawn) [13a, 6β-(3-Methoxyphenyl)acetamidomorphine]: the Emax at mu opioid receptor [1] (setting [5]) is 99 ± 4%. Also, the EC50 at mu opioid receptor [1] (Table 2, read-out: mu EC50) came out at 1.7 ± 0.17 nM.
`COc1ccc(CC(=O)NC2C=CC3C4Cc5ccc(O)c6c5C3(CCN4C)C2O6)cc1` (stereo not drawn) [13b, 6β-(4-Methoxyphenyl)acetamidomorphine]: the Emax at mu opioid receptor [1] (setting [5]) turned out to be 72.5 ± 14.5%. On mu opioid receptor [1] (Table 2, read-out: mu EC50), the EC50 was 4.8 ± 2.05 nM.
As to `COc1cccc(C(=O)NC2C=CC3C4Cc5ccc(O)c6c5C3(CCN4C)C2O6)c1` (stereo not drawn) [13c, 6β-(3-Methoxy)benzamidomorphine], at mu opioid receptor [1] (setting [5]), the Emax turned out to be 87.5 ± 6.5%. Also, at mu opioid receptor [1] (Table 2, read-out: mu EC50), the EC50 worked out at 2.8 ± 0.24 nM.
Take `CN1CCC23c4c5ccc(O)c4OC2C(NC(=O)c2ccccc2)C=CC3C1C5` (stereo not drawn) [13d, 60-Benzamidomorphine]: the Emax at mu opioid receptor [1] (setting [5]) was 90.5 ± 9.5%. Besides, the EC50 on mu opioid receptor [1] (Table 2, read-out: mu EC50) stood at 5.5 ± 0.9 nM.
With `COC(=O)c1cccc(C(=O)NC2C=CC3C4Cc5ccc(O)c6c5C3(CCN4C)C2O6)c1` (stereo not drawn) [13e, 6β-(3′-Carbomethoxy)benzamidomorphine], the Emax on mu opioid receptor [1] (setting [5]) came out at 98.1 ± 7.9%. On mu opioid receptor [1] (based on [35S]GTPγS binding), the “agonist/antagonist character” value was “potent full agonist”. In addition, at mu opioid receptor [1] (value, read-out: EC50 at μ, stimulation of [35S]GTPγS binding), the EC50 stood at 2.4 nM.
As for `CN1CCC23c4c5ccc(O)c4OC2C(NC(=O)c2cccc([N+](=O)[O-])c2)C=CC3C1C5` (stereo not drawn) [13f, 6β-(3′Nitro)benzamidomorphine], the Emax at mu opioid receptor [1] (setting [5]) is 95.5 ± 7.5%. For the same molecule, the EC50 at mu opioid receptor [1] (Table 2, read-out: mu EC50) worked out at 1.9 ± 0.16 nM.
Consider `CN1CCC23c4c5ccc(O)c4OC2C(NC(=O)c2ccc(Cl)c(Cl)c2)C=CC3C1C5` (stereo not drawn) [13g, 6β-(3′,4′-Dichloro)benzamidomorphine], for which, at mu opioid receptor [1] (setting [5]), the Emax worked out at 95.5 ± 10.5%. Also, the EC50 at mu opioid receptor [1] (Table 2, read-out: mu EC50) amounted to 0.1 nM.
`CN1CCC23c4c5ccc(O)c4OC2C(NC(=O)Cc2cccs2)C=CC3C1C5` (stereo not drawn) [13h, 6β-(Thiophen-2′-yl)acetamidomorphine]: the Emax on mu opioid receptor [1] (setting [5]) came out at 95.8 ± 19.3%. The EC50 at mu opioid receptor [1] (Table 2, read-out: mu EC50) is 6 ± 2.1 nM.
On to `CN1CCC23c4c5ccc(O)c4OC2C(OC2O[C@H](C(=O)O)[C@@H](O)[C@H](O)[C@H]2O)C=CC3C1C5` (stereo partly drawn) [M6G, Morphine-6-glucuronide, reference compound], for which, at mu opioid receptor [2], the “μ Emax” value was 45.0 ± 5.0 and the “efficacy (Emax) at the μ receptor” value is recorded as 45%. Also, at mu opioid receptor [3], the “Receptor selectivity δ/μ” value is recorded as 12.5 and the “Receptor selectivity κ/μ” value is 316. Also, on mu opioid receptor [1], the response was half-maximal at 72.3 ± 26.7 nM (EC50) and the Emax was 45 ± 5%.
For `O=C(C[C@@H]1O[C@H](COCc2ccccc2)[C@@H](OCc2ccccc2)[C@H](OCc2ccccc2)[C@H]1OCc1ccccc1)NC1CC[C@@]2(O)[C@H]3Cc4ccc(O)c5c4[C@@]2(CCN3CC2CC2)[C@H]1O5` (stereo partly drawn) [compound 5, 6-acetamido-2,3,4,6-tetra-O-benzyl-D-glucopyranosyl-14-Hydroxy-17-(cyclopropylmethyl)nordesmorphine], on mu opioid receptor [1] (Table 8), the Emax came out at 21.4 ± 0.5%. At mu opioid receptor [1] (Table 8, read-out: mu EC50), the EC50 was 9.7 ± 0.5 nM.
Take `CN1CC[C@]23c4c5ccc(O)c4O[C@H]2[C@H](NC(=O)C[C@@H]2O[C@H](COCc4ccccc4)[C@@H](OCc4ccccc4)[C@H](OCc4ccccc4)[C@H]2OCc2ccccc2)C=C[C@H]3[C@H]1C5` [compound 11]: on mu opioid receptor [1] (Table 6, Example 33), the “μ Emax” value worked out at 36.0 ± 11.2. In addition, at mu opioid receptor [1] (Table 6, Example 33, read-out: μ EC50), the EC50 worked out at 623 ± 9.2 nM. The “agonist/antagonist character” value on mu opioid receptor [1] (based on [35S]GTPγS binding) is “partial agonist”.
Take `CN1CCC23c4c5ccc(O)c4OC2C(NC(=O)c2cccc(C(=O)O)c2)C=CC3C1C5` (stereo not drawn) [compound 14, 6β-(3′Carboxy)benzamidomorphine]: at mu opioid receptor [1] (setting [5]), the Emax is 71 ± 8%. The EC50 on mu opioid receptor [1] (Table 2, read-out: mu EC50) amounted to 65.1 ± 21.8 nM.
In the case of “Dihydromorphine-6-β-acetamidoglucose [compound 3]”, on mu opioid receptor [1], the “agonist/antagonist character” value is reported as “full agonist”, the “efficacy (Emax) at the μ receptor” value is 75% and the “μ Emax” value turned out to be 75.2 ± 3.6. At mu opioid receptor [1] (read-out: μ EC50), the EC50 turned out to be 37.2 ± 0.5 nM.
